Data taken from PubChem BioAssay (NCATS).
“And” between values parts separate entries of the source, which are not always exact repeats. Equal values may be shown once. This is one part of the list. These are further read-outs of the screen, such as a control signal, another cell line or another target. No call is given for them. Compounds called inactive in the main read-out are mostly missing here. For some assays here: The note in brackets gives the kind of curve behind each potency; many fits are weak.
Tags give direction and shape of the fitted curve.

Assay: qHTS Assay for Lipid Storage Modulators (AID 1519)
Conditions: Drosophila S3 cells, BODIPY lipid droplet/cell ratio, laser cytometry; measured here: lipid channel max response; cells loaded with oleic acid
Outline: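 Cells seeded at 5,000 per well were treated with compounds over a concentration series and loaded with oleic acid (400 uM, as added). Lipid droplet fluorescence (488 nm excitation, 500-530 nm channel) was read by laser-scanning cytometry and normalized to 20 uM Triacsin C.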
In the case of CCCN1CCCC2Cc3[nH]ncc3CC21 (stereo not given), the max response is reported as 33.2%.
For NCC1(CC(=O)O)CCCCC1, the max response was 50%.
In the case of CC(C)(C)c1cc(C=C(C#N)C#N)cc(C(C)(C)C)c1O, the max response is reported as -96.6%.
Work on CC[C@]1(O)C(=O)OCc2c1cc1n(c2=O)Cc2cc3ccccc3nc2-1 yielded a max response of 64.8%.
Work on C/C=C(/C)C(=O)O[C@H]1C(C)=C2C([C@@H]1OC(=O)CCCCCCC)[C@@](C)(OC(C)=O)C[C@@H](OC(=O)CCC)[C@@]1(O)[C@H]2OC(=O)[C@@]1(C)O (stereo not given in full) yielded a max response of -103%.
With NC(Cc1ccc(N(CCCl)CCCl)cc1)C(=O)O (stereo not given) the max response was 66.6%.
Work on C[C@]12CC[C@H]3[C@@H](CCC4C[C@H](O)CC[C@@]43C)[C@@H]1CC[C@@H]2O (stereo not given in full) yielded a max response of 50%.
OC1CCCCC1N1CCC(c2ccccc2)CC1 (stereo not given) gave a max response of 66.4%.
With C[N+](C)(C)CCOC(=O)CBr the max response was -17.6%.
CCc1c(C(=O)OC)ncc2[nH]c3cc(OC)c(OC)cc3c12 gave a max response of 70%.
In the case of NC(=NCc1ccc(Cl)cc1)SCCCc1cnc[nH]1, the max response is reported as 103%.
With NC(N)=N/N=C/c1c(Cl)cccc1Cl the max response was 46.2%.
C[C@H]1OC[C@@H](C[N+](C)(C)C)O1 showed a max response of 31.9%.
With C[C@@H]1O[C@@H](O[C@H]2C[C@@H](O)[C@]3(CO)[C@@H]4C(CC[C@]3(O)C2)[C@@]2(O)CC[C@H](C3=CC(=O)OC3)[C@@]2(C)C[C@H]4O)[C@H](O)[C@H](O)[C@H]1O (stereo not given in full) the max response was 31.9% and 48.7%.
C[C@]12CCC3C(CC[C@]4(O)C[C@@H](O)CC[C@]34C=O)[C@@]1(O)CC[C@@H]2C1=CC(=O)OC1 (stereo not given in full) showed a max response of 37.3%.
CNC(=O)OCC[N+](C)(C)C gave a max response of 51.7%.
Work on CN1CC[C@@H]2CN3CCc4cccc(c43)[C@H]2C1 yielded a max response of 88.3%.
With CCC[C@@H]1CC2=CC(=O)CC[C@]2(C)[C@@H]2CC[C@@]3(C)[C@H](CC[C@]3(O)CCC(=O)O)[C@H]12 the max response was 44.1%.
Molecule CCCCCCCCCOc1ccc2[nH]cc(CCN)c2c1 has a max response of -43.2%.
For O=C(NCC1CCCCN1)c1cc(OCC(F)(F)F)ccc1OCC(F)(F)F (stereo not given), the max response was 58.3%.

Assay: qHTS Assay for Modulators of Human Peripheral Myelin Protein 22 (PMP22) Expression/Activity (AID 1967)
Conditions: Cell-based PMP22 reporter, dual-color luciferase ratio; measured here: green reporter channel AC50; mouse Pmp22 promoter in mouse Schwann cells
Outline: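 Engineered MSC80 cells, Pmp22-promoter green and EF-alpha red luciferase reporters; 24h compound treatment at 37 °C. Concentration-response fits on green, red and ratio signals, each overlap-corrected, with %Activity normalized to untreated wells.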
In the case of O=C(OC1CCN(CCCl)CC1)C(c1ccccc1)c1ccccc1, the AC50 is reported as 67.5 µM [falling, partial curve].
For C[C@H](N)CN1CCc2ccc(Br)cc21, the AC50 was 67.5 µM [falling, partial curve, poor fit].
With CC(C)[C@@]1(NC(=O)[C@@H]2C[C@@H]3c4cccc5[nH]cc(c45)C[C@H]3N(C)C2)O[C@@]2(O)C3CCCN3C(=O)[C@H](Cc3ccccc3)N2C1=O (stereo not given in full) the AC50 was 60.1 µM [falling, partial curve].
In the case of CC(C)(C)c1cc(C=C(C#N)C#N)cc(C(C)(C)C)c1O, the AC50 is reported as 4.78 µM [falling, full curve].
With c1ccc2c(c1)OCC(C1=NCCN1)O2 (stereo not given) the AC50 was 23.9 µM [falling, full curve].
In the case of Oc1ccccc1O, the AC50 is reported as 84.9 µM [falling, single point].
In the case of COc1ccc(-n2nc(C(F)(F)F)cc2-c2ccc(Cl)cc2)cc1, the AC50 is reported as 84.9 µM [falling, single point].
For CC(=O)[C@H]1CCC2C3CC[C@H]4C[C@H](O)CC[C@]4(C)C3CC[C@@]21C (stereo not given in full), the AC50 was 67.5 µM [falling, partial curve].
In the case of C/C=C(/C)C(=O)O[C@H]1C(C)=C2C([C@@H]1OC(=O)CCCCCCC)[C@@](C)(OC(C)=O)C[C@@H](OC(=O)CCC)[C@@]1(O)[C@H]2OC(=O)[C@@]1(C)O (stereo not given in full), the AC50 is reported as 0.0675 µM [falling, full curve].
With CCc1c(C(=O)OC)ncc2[nH]c3cc(OC)c(OC)cc3c12 the AC50 was 53.6 µM [falling, partial curve].
In the case of O=[N+]([O-])c1ccc2nc(N3CCNCC3)ccc2c1, the AC50 is reported as 67.5 µM [falling, partial curve, poor fit].
In the case of NC(N)=Nc1ccc2[nH]c3c(c2c1)C[C@@]1(O)[C@H]2Cc4ccc(O)c5c4[C@@]1(CCN2CC1CC1)[C@H]3O5, the AC50 is reported as 37.9 µM [falling, full curve].
With CN1CC[C@@]2(C)c3cc(O)ccc3N(C)C12 (stereo not given in full) the AC50 was 84.9 µM [falling, single point].
In the case of O=c1oc(Cl)c(Cl)c2ccccc12, the AC50 is reported as 67.5 µM [falling, partial curve, poor fit].
With OCCN1CCN(CCCN2c3ccccc3Sc3ccc(C(F)(F)F)cc32)CC1 the AC50 was 26.9 µM [falling, full curve].
